Reference: publication PMC9610465, “The Inhibition of α-Glucosidase, α-Amylase and Protein Glycation by Phenolic Extracts of Cotoneaster bullatus, Cotoneaster zabelii, and Cotoneaster integerrimus Leaves and Fruits: Focus on Anti-Hyperglycemic Activity and Kinetic Parameters” (Molecules, 2022)

What was measured:
[1] = molecular target: α-glucosidase from Saccharomyces cerevisiae; test: α-Glucosidase inhibitory assay (PNPG substrate); settings: yeast α-glucosidase, PNPG as substrate, mean ± SD (n = 3)
[2] = tested on: α-glucosidase from Saccharomyces cerevisiae; test: Kinetic parameters of α-glucosidase inhibition (Lineweaver–Burk, Michaelis–Menten); type: biochemical; settings: for Vmax: α-glucosidase
Experimental: Kinetic parameters of α-glucosidase and α-amylase inhibition were determined for the leaf extract of C. bullatus. In the kinetic study, the reaction mixtures were prepared according to the protocols described above (Section 4.4 and Section 4.5). In the inhibition assays, reaction substrates (S) were used at different concentrations, including PNPG in the range of 0.28–1.00 mM and soluble starch in the range of 0.26–1.81 mM, for α-glucosidase and α-amylase tests, respectively. The activity of enzymes was evaluated in the absence or presence of different concentrations of the tested extract used as an inhibitor (I). The extract concentrations for the α-glucosidase inhibitory kinetics were 5.0, 6.0, and 9.0 µg/mL, whereas 20.0, 40.0, and 60.0 µg/mL were used for α-amylase. […] The initial rates of reactions (Vo) were calculated from calibration curves constructed using varying concentrations of p-nitrophenol and maltose for the α-glucosidase and α-amylase assay, respectively.
Based on the Lineweaver–Burk graph, two important terms in enzyme kinetics could be determined: Km (Michaelis constant) and Vmax (Maximum velocity). The y-intercept of such a graph corresponds to the inverse of Vmax, while the x-axis intersection represents −1/Km. Vmax and Km could therefore be determined experimentally or calculated from the Lineweaver-Burk equation [26]:(1) 1/V=Km/Vmax × 1/S+1/Vmax where Km is the Michaelis constant; Vmax is the maximum velocity; V is the reaction velocity, and S is the substrate of the enzymatic reaction.
The study of the inhibition type of the tested extract (competitive, noncompetitive, or mixed type) was performed by the comparison of Km and Vmax and their ratio (Km/Vmax) in the presence and absence of the inhibitor (I). The type of inhibition was also assessed based on the graphical view of the Lineweaver–Burk plot (1/V versus 1/S).

Row | SMILES | IC50 α-Glucosidase [1] | other results
1 | O=c1c(O[C@@H]2O[C@H](CO)[C@H](O)[C@H](O)[C@H]2O[C@@H]2OC[C@@H](O)[C@H](O)[C@H]2O)c(-c2ccc(O)c(O)c2)oc2cc(O)cc(O)c12 [QPH, quercetin 3-O-β-D-(2″-O-β-D-xylopyranosyl)galactopyranoside] | 311.80 ± 1.97 ^G µg/mL | –
2 | C[C@H]1O[C@H](O[C@H]2[C@H](O)[C@@H](O)[C@@H](O[C@H]3[C@H](O)[C@@H](O)C(O)O[C@@H]3CO)O[C@@H]2CO)[C@H](O)[C@@H](O)[C@@H]1N[C@H]1C=C(CO)[C@@H](O)[C@H](O)[C@H]1O (some centres unmarked) [AR, acarbose] | – | Type Inhibition, α-glucosidase ([2]; Lineweaver–Burk plot): Competitive; Vmax ([2]; inhibitor 110.0 µg/mL): 0.028 ± 0.001^A mM/min; Vmax ([2]; inhibitor 160.0 µg/mL): 0.027 ± 0.001^A mM/min; Vmax ([2]; inhibitor 215.0 µg/mL): 0.029 ± 0.001^A mM/min
3 | O=C(O)CC(OC(=O)/C=C/c1ccc(O)c(O)c1)C(=O)O (centres unmarked) [CAD, caffeoylmalic acid] | 43.70 ± 2.18 ^B µg/mL | –

Further lines, with some results ahead:

Row | IC50 α-Glucosidase [1] | SMILES | other results
4 | 416.37 ± 11.23 ^H µg/mL | Oc1cc(O)c2c(c1)O[C@H](c1ccc(O)c(O)c1)[C@H](O)[C@H]2c1c(O)cc(O)c2c1O[C@H](c1ccc(O)c(O)c1)[C@H](O)C2 [PB2, procyanidin B2] | –
5 | 283.48 ± 3.47 ^F µg/mL | O=c1c(O[C@@H]2O[C@H](CO)[C@H](O)[C@H](O)[C@H]2O)c(-c2ccc(O)c(O)c2)oc2cc(O)cc(O)c12 [HP, hyperoside] | –
